Test in all cases: co-IP; HEK293 cells transfected with each expression gene, lysed; immunoprecipitation with anti-DDDDK-tag, anti-HA-tag or anti-Myc-tag magnetic beads; blots with anti-FLAG, anti-HA and anti-Myc
In experiment [1] the target is family with sequence similarity 102 member A (Fam102a) (UniProt Q78T81).
Experiment [2] concerns the target runt-related transcription factor 2 (Runx2) (UniProt Q08775).
The target of experiment [3] is family with sequence similarity 102 member A (Fam102a) (UniProt Q78T81). This is another data set of the same source.

Protein sequences, listed by entry. Tags and fused reporters are not part of them.
UniProt Q78T81: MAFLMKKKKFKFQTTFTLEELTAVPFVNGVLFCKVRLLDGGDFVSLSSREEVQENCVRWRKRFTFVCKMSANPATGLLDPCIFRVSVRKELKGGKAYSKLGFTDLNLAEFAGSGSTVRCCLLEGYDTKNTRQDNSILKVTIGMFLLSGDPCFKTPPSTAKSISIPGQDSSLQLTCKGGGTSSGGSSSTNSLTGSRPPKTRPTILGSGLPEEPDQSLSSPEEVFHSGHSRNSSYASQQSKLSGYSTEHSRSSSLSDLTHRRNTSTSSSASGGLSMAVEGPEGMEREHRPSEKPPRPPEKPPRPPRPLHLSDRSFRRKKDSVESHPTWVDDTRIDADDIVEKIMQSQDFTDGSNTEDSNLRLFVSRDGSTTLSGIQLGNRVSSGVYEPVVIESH
UniProt Q08775: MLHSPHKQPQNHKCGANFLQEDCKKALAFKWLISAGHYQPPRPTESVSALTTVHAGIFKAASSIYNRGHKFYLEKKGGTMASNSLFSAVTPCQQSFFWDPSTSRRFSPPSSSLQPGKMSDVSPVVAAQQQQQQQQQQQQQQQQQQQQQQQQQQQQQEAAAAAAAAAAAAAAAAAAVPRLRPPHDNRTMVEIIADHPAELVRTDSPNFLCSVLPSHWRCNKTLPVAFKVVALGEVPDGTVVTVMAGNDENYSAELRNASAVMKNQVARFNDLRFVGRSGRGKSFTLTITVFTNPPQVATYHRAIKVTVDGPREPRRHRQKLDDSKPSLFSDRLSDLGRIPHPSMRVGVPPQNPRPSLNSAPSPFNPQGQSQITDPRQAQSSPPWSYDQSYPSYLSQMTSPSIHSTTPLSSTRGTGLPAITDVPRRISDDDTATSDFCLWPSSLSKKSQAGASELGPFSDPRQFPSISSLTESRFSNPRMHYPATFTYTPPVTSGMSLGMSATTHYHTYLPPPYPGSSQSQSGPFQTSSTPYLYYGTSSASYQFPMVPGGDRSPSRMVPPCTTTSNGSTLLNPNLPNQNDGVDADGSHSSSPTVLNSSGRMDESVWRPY
UniProt O08674: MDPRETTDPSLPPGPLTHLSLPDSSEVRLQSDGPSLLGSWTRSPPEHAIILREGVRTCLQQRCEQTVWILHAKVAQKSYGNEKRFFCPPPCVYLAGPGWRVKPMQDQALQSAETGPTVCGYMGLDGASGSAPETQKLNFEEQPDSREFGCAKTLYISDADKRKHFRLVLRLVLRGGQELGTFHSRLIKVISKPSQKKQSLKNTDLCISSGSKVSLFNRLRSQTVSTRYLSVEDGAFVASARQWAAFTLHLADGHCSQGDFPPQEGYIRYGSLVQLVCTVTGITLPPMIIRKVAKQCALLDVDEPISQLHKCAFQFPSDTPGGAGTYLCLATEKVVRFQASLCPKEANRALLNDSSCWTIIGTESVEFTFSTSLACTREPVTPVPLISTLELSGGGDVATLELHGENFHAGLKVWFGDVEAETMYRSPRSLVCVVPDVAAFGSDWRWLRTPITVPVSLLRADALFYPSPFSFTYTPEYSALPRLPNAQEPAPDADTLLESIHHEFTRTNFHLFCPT
UniProt P46938: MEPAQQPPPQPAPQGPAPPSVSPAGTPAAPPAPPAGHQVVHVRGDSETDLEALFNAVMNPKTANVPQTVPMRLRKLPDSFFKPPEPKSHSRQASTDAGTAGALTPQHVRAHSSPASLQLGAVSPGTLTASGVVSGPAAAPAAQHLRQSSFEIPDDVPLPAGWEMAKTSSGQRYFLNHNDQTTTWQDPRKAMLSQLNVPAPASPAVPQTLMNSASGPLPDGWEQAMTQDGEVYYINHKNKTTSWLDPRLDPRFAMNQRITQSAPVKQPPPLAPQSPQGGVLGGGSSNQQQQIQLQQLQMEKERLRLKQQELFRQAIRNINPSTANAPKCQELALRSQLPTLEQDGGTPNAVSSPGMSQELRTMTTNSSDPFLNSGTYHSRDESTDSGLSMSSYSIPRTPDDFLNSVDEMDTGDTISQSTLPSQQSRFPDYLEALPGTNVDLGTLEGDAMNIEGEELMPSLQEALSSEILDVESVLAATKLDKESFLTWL
UniProt Q9EPK5: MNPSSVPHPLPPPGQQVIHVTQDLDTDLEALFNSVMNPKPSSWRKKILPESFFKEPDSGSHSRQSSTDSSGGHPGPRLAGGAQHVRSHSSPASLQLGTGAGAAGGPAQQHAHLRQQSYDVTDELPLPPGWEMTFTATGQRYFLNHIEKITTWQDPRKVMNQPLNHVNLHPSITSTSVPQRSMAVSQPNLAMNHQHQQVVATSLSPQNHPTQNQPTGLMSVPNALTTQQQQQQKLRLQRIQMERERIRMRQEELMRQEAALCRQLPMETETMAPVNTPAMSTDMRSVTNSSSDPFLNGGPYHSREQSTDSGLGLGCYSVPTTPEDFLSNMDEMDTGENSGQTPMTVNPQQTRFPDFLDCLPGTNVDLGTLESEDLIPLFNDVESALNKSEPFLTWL

The results in this text go back to PMC11695619.

Where two headings read alike, the source gives them in different places. No constants are given. Whether binding was seen depends on the method and setting. Binding seen in cells or lysates may run through a third protein. Some results given as binding are weak or reduced against the parent protein; the word gives no strength.

“recombination signal binding protein for immunoglobulin κ J region-like (Rbpjl) (from UniProt O08674 1-515)”: the binding result in experiment [1] and in experiment [2] was “binds” each time.

For the molecule “yes-associated protein 1 (Yap1) (from UniProt P46938 1-488)”, the binding entry in experiment [1] is “no binding”.

Consider “transcriptional coactivator with PDZ-binding motif (Taz) (from UniProt Q9EPK5 1-395)”, for which the binding result in experiment [1] was “no binding”.

B1: hes family bHLH transcription factor 1 (Hes1) (protein, UniProt P35428 1-282)
chain: MPADIMEKNSSSPVAATPASVNTTPDKPKTASEHRKSSKPIMEKRRRARINESLSQLKTLILDALKKDSSRHSKLEKADILEMTVKHLRNLQRAQMTAALSTDPSVLGKYRAGFSECMNEVTRFLSTCEGVNTEVRTRLLGHLANCMTQINAMTYPGQAHPALQAPPPPPPSGPAGPQHAPFAPPPPPLVPIPGGAAPPPGSAPCKLGSQAGEAAKVFGGFQVVPAPDGQFAFLIPNGAFAHSGPVIPVYTSNSGTSVGPNAVSPSSGSSLTSDSMWRPWRN
B1: the binding result in experiment [3] is given as “no binding”.
